The other results are listed elsewhere or left out.
What was measured:
HSkMC = human skeletal muscle cells; assay: cytotoxicity call (relative viability < 0.9); conditions: 10 µM
HepG2 = assay: cytotoxicity call (relative viability < 0.9); conditions: 10 µM
S. aureus RN4220 = assay: growth inhibition call (relative growth <= 0.2); conditions: 50 µM

COC(=O)C1=CC(CCCO)=C[C@@H](c2cccs2)N(Cc2cccc(OC(F)(F)F)c2)C=C1C(=O)OC was tested, and the cytotoxicity call (HSkMC) was “inactive”, the cytotoxicity call (HepG2) was “inactive” and the growth inhibition call (S. aureus RN4220) was “active”.

With CN1C(=O)c2cc(NC(=O)c3cnccn3)ccc2OC[C@@H]2O[C@H](CC(=O)N[C@@H]3CCN(Cc4ccccc4)C3)CC[C@@H]21 the cytotoxicity call (HSkMC) was “inactive”, the cytotoxicity call (HepG2) was “inactive” and the growth inhibition call (S. aureus RN4220) was “inactive”.

C[C@@H]1CN([C@H](C)CO)C(=O)c2cccc(NC(=O)c3nc4ccccc4s3)c2O[C@@H]1CN(C)Cc1ccc(Oc2ccccc2)cc1 was tested, and the cytotoxicity call (HSkMC) was “inactive”, the cytotoxicity call (HepG2) was “inactive” and the growth inhibition call (S. aureus RN4220) was “inactive”.

C[C@H]1CN([C@@H](C)CO)C(=O)c2cccc(NC(=O)c3ccc(-c4nccs4)cc3)c2O[C@@H]1CN(C)S(C)(=O)=O was tested, and the cytotoxicity call (HSkMC) was “inactive”, the cytotoxicity call (HepG2) was “inactive” and the growth inhibition call (S. aureus RN4220) was “inactive”.

In the case of CC(C)(C)OC(=O)C[C@@H]1CC=CC[C@@H](CC(=O)NCCO)C(=O)N[C@@H](Cc2c[nH]c3ccccc23)COC1=O, the cytotoxicity call (HSkMC) is reported as “inactive”, the cytotoxicity call (HepG2) is reported as “inactive” and the growth inhibition call (S. aureus RN4220) is reported as “inactive”.

For CC(=O)ON1C(C)(C)C=C(C(N)=O)C1(C)C, the cytotoxicity call (HSkMC) was “inactive”, the cytotoxicity call (HepG2) was “inactive” and the growth inhibition call (S. aureus RN4220) was “inactive”.

In the case of Cc1ccc(S(=O)(=O)N(C)C[C@H]2OCCCC[C@H](C)Oc3ccc(NC(=O)Nc4c(C)noc4C)cc3C(=O)N([C@H](C)CO)C[C@H]2C)cc1, the cytotoxicity call (HSkMC) is reported as “inactive”, the cytotoxicity call (HepG2) is reported as “inactive” and the growth inhibition call (S. aureus RN4220) is reported as “inactive”.

In the case of CC(C)NC(=O)Nc1ccc2c(c1)C(=O)N([C@H](C)CO)C[C@@H](C)[C@@H](CN(C)Cc1ccc(Oc3ccccc3)cc1)O2, the cytotoxicity call (HSkMC) is reported as “inactive”, the cytotoxicity call (HepG2) is reported as “inactive” and the growth inhibition call (S. aureus RN4220) is reported as “inactive”.

In the case of C[C@@H]1CN([C@@H](C)CO)C(=O)c2cc(NC(=O)CCN3CCOCC3)ccc2O[C@@H]1CN(C)Cc1ccc2c(c1)OCO2, the cytotoxicity call (HSkMC) is reported as “inactive”, the cytotoxicity call (HepG2) is reported as “inactive” and the growth inhibition call (S. aureus RN4220) is reported as “inactive”.

With CS(=O)(=O)CCOC(=O)C1=CC(CCCO)=C[C@@H](c2ccc(CN3CCCC3)cc2)N(Cc2sc3ccccc3c2Cl)C=C1C(=O)OCCS(C)(=O)=O the cytotoxicity call (HSkMC) was “inactive”, the cytotoxicity call (HepG2) was “inactive” and the growth inhibition call (S. aureus RN4220) was “active”.

In the case of C[C@H]1CN([C@@H](C)CO)C(=O)Cc2cc(N(C)C)ccc2O[C@H]1CN(C)S(=O)(=O)c1cn(C)cn1, the cytotoxicity call (HSkMC) is reported as “inactive”, the cytotoxicity call (HepG2) is reported as “inactive” and the growth inhibition call (S. aureus RN4220) is reported as “inactive”.

In the case of C[C@@H]1CN([C@@H](C)CO)C(=O)c2c(c3ccccc3n2C)-c2ccccc2CO[C@H]1CN(C)C(=O)[C@H](C)c1ccccc1, the cytotoxicity call (HSkMC) is reported as “inactive”, the cytotoxicity call (HepG2) is reported as “inactive” and the growth inhibition call (S. aureus RN4220) is reported as “inactive”.

For O=C(N[C@H]1CC=CC[C@H](CC(=O)N(CCO)Cc2ccccc2)C(=O)N[C@@H](Cc2c[nH]c3ccccc23)COC1=O)OCC1c2ccccc2-c2ccccc21, the cytotoxicity call (HSkMC) was “inactive”, the cytotoxicity call (HepG2) was “inactive” and the growth inhibition call (S. aureus RN4220) was “inactive”.

With CC(C)NC(=O)N(C)C[C@@H]1Oc2cc(C#Cc3ccccn3)ccc2S(=O)(=O)N([C@H](C)CO)C[C@@H]1C the cytotoxicity call (HSkMC) was “inactive”, the cytotoxicity call (HepG2) was “inactive” and the growth inhibition call (S. aureus RN4220) was “inactive”.

For C[C@@H]1CCCCO[C@H](CN(C)Cc2ccc(Cl)c(Cl)c2)[C@H](C)CN([C@@H](C)CO)C(=O)c2cc(NC(=O)Nc3ccc(F)cc3)ccc2O1, the cytotoxicity call (HSkMC) was “inactive”, the cytotoxicity call (HepG2) was “inactive” and the growth inhibition call (S. aureus RN4220) was “inactive”.

With CSC(=N)NCCC[C@H](N)C(=O)O the cytotoxicity call (HSkMC) was “inactive”, the cytotoxicity call (HepG2) was “inactive” and the growth inhibition call (S. aureus RN4220) was “inactive”.

In the case of C[C@H]1CCCCO[C@@H](CN(C)S(=O)(=O)c2cccs2)[C@@H](C)CN([C@@H](C)CO)C(=O)c2cc(NS(=O)(=O)c3cn(C)cn3)ccc2O1, the cytotoxicity call (HSkMC) is reported as “inactive”, the cytotoxicity call (HepG2) is reported as “inactive” and the growth inhibition call (S. aureus RN4220) is reported as “inactive”.

In the case of COc1ccc(S(=O)(=O)Nc2cccc3c2O[C@@H](CN(C)C(=O)Nc2cccc4ccccc24)[C@@H](C)CN([C@H](C)CO)C3=O)cc1, the cytotoxicity call (HSkMC) is reported as “inactive”, the cytotoxicity call (HepG2) is reported as “inactive” and the growth inhibition call (S. aureus RN4220) is reported as “inactive”.

With C[C@@H]1CCCCO[C@@H](CN(C)Cc2ccc3c(c2)OCO3)[C@@H](C)CN([C@@H](C)CO)C(=O)c2cc(NC(=O)NC3CCCCC3)ccc2O1 the cytotoxicity call (HSkMC) was “inactive”, the cytotoxicity call (HepG2) was “inactive” and the growth inhibition call (S. aureus RN4220) was “inactive”.

In the case of Cc1ccc(C(=O)Nc2cccc(C(F)(F)F)c2)cc1Nc1nc(-c2cccnc2)nc2c1cnn2C, the cytotoxicity call (HSkMC) is reported as “inactive”, the cytotoxicity call (HepG2) is reported as “active” and the growth inhibition call (S. aureus RN4220) is reported as “inactive”.

For CO[C@@H]1CN(C)C(=O)c2ccc(NS(C)(=O)=O)cc2OC[C@@H](C)N(C(=O)CN(C)C)C[C@H]1C, the cytotoxicity call (HSkMC) was “inactive”, the cytotoxicity call (HepG2) was “inactive” and the growth inhibition call (S. aureus RN4220) was “inactive”.

CNC(=O)C[C@H]1NCCNC1=O was tested, and the cytotoxicity call (HSkMC) was “inactive”, the cytotoxicity call (HepG2) was “inactive” and the growth inhibition call (S. aureus RN4220) was “inactive”.

For COc1ccc(S(=O)(=O)Nc2ccc3c(c2)C(=O)N([C@H](C)CO)C[C@@H](C)[C@H](CN(C)Cc2ccc(-c4ccccc4)cc2)O3)cc1, the cytotoxicity call (HSkMC) was “inactive”, the cytotoxicity call (HepG2) was “inactive” and the growth inhibition call (S. aureus RN4220) was “inactive”.

In the case of Cc1sc2ncnc(N3CCC(Cn4cc(C(C)(C)N)nn4)CC3)c2c1C, the cytotoxicity call (HSkMC) is reported as “inactive”, the cytotoxicity call (HepG2) is reported as “inactive” and the growth inhibition call (S. aureus RN4220) is reported as “inactive”.

With O=C(C[C@H]1C=C[C@@H](NC(=O)c2ccc(F)cc2)[C@H](CO)O1)NCc1ccncn1 the cytotoxicity call (HSkMC) was “inactive”, the cytotoxicity call (HepG2) was “inactive” and the growth inhibition call (S. aureus RN4220) was “inactive”.

In the case of COCC#Cc1cnc2c(c1)C(=O)N([C@@H](C)CO)C[C@H](C)[C@H](CN(C)C(=O)c1cnccn1)O2, the cytotoxicity call (HSkMC) is reported as “inactive”, the cytotoxicity call (HepG2) is reported as “inactive” and the growth inhibition call (S. aureus RN4220) is reported as “inactive”.

Source: the antibiotic and cytotoxicity screens of Wong et al. (2023)
